± gives the standard deviation of the averaged measurements. Over roughly 4,100 sequences, “relative kcat/Km (krel) vs genomic leader AAAGAU” has its median near 1.7; the highest 2% begin near 6.5. Only a part is listed here, and it is no random draw.
Target: T1, E. coli RNase P holoenzyme (M1 P RNA + rnpA protein) (UniProt P0A7Y8)
T1 sequence: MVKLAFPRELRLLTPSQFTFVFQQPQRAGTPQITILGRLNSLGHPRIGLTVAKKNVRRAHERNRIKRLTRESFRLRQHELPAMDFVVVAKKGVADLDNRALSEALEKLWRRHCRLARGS
Test: relative kcat/Km (krel) vs genomic leader AAAGAU (relative (reference leader = 1)); higher = faster RNase P cleavage
Experimental: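 HTS-Kin: a pool of ptRNA-Met (21C construct) with all 4096 combinations of 5' leader nucleotides N(-6) to N(-1) was processed in vitro by E. coli RNase P (P RNA + rnpA/C5 protein) under multiple-turnover conditions at 37 C, pH 8, 17.5 mM MgCl2. Residual substrate was Illumina-sequenced at several fractions reacted, and relative kcat/Km (krel) was computed by internal competition kinetics, calibrated to the genomic leader (AAAGAU = 1). The listed hexamer is the varied N(-6)..N(-1) leader (DNA letters), and it sits between a fixed 5' stem-loop flank (GCAUGCACGAAAGUGCGUGCUAUGAA) and the mature tRNA-Met starting GGCUACGUAGCUCAGUUGG. Two technical replicates are averaged.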

[1] = fraction of substrate reacted: ~9-10% (9.79% repeat 1, 9.1% repeat 2)
[2] = fraction of substrate reacted: ~13-16% (15.68% repeat 1, 13.17% repeat 2)
[3] = fraction of substrate reacted: ~26-29% (28.66% repeat 1, 26.4% repeat 2)

Sequence	relative kcat/Km [1]	relative kcat/Km [2]	relative kcat/Km [3]
ACCACA	1.78 ± 1	1.18 ± 0.031	2.93 ± 0.38
AGCACA	1.61 ± 0.69	1.7 ± 0.22	2.75 ± 1.6
CTGAAC	1.4 ± 0.43	1.56 ± 0.17	2.89 ± 0.17
CGGGGA	0.804 ± 0.45	0.952 ± 0.8	1.26 ± 0.75
GAACAC	2.51 ± 0.54	2.49 ± 0.41	3.79 ± 2
TTCACG	2.05 ± 1.9	2.41 ± 0.2	4.56 ± 1.4
GGGGGT			1.64 ± 0.64
ATGGGG			1.04 ± 1
GATAAC	2.1 ± 0.44	2.81 ± 0.13	3.66 ± 1
CCGGTC	1.09 ± 0.83		0.988 ± 0.48
AGAGCC		1.08 ± 1	1.95 ± 0.056
CGGTGA	1.04 ± 0.013	0.427 ± 0.36	0.796 ± 0.33
CAGACT	2.31 ± 0.19	1.6 ± 0.15	2.11 ± 0.27
AACATC	2.81 ± 1.3	3.41 ± 0.46	4.4 ± 1.2
CAGGGG	0.431 ± 0.11	0.26 ± 0.073	0.793 ± 0.55
ACCGCA	2.69 ± 0.93	3.53 ± 1.4	4.14 ± 1.6
AGTTGC	2.29 ± 0.63	2.8 ± 0.55	4.49 ± 2.1
ATGTAA	2.29 ± 0.4	3.54 ± 0.58	4.88 ± 1.9
GACCCA	1.36 ± 0.79	1.59 ± 0.45	2.89 ± 0.71
CGCTGT	0.749 ± 0.51	0.633 ± 0.6	1.15 ± 0.76
GTAAAC	1.67 ± 0.13	2.42 ± 0.47	3.36 ± 1.4
GCTTCA	0.727 ± 0.029	0.854 ± 0.8	1.42 ± 0.3
GTGCAT	1.15 ± 0.62	1.26 ± 0.058	1.52 ± 0.4

Sequence	relative kcat/Km [1]	relative kcat/Km [2]	relative kcat/Km [3]
CAGTGC	1.87 ± 0.55	1.62 ± 0.28	1.98 ± 0.55
CATAGC	1.96 ± 0.68	2.77 ± 0.47	3.61 ± 0.73
TTCGCG		2.32 ± 0.79	3.87 ± 0.24
AACTTG			1.19 ± 0.33
AAAGCA	1.71 ± 0.91	1.3 ± 0.37	0.913 ± 0.27
AGAGGA	0.113 ± 0.087		
CGAGGG	0.555 ± 0.24		0.283 ± 0.06
CGTGAC	2.55 ± 0.44	2.77 ± 1.6	3.37 ± 1.4
AGACAT	2.34 ± 0.18	3.58 ± 0.94	4.74 ± 2.3
TGGGTC			1.63 ± 1.5
CCATTA	2.6 ± 0.39	2.38 ± 0.72	2.61 ± 0.68
TACCAG	2.73 ± 1.4	2.64 ± 1.1	4.81 ± 1.2
AAAAAG			0.847 ± 0.13
GACATC	3.66 ± 0.77	3.95 ± 1.1	5.9 ± 2.2
TAGGAC	1.76 ± 1.3	2.22 ± 0.8	2.48 ± 1.2
ATTCGG			1.2 ± 0.042
GCAACC	0.531 ± 0.17	0.582 ± 0.035	0.799 ± 0.41
AAACAG	0.87 ± 0.18		1.39 ± 0.38
TTTGTG			0.542 ± 0.42
AAGTCT	2.19 ± 1.6	2.24 ± 0.11	2.86 ± 1.1
TGGGAG			0.583 ± 0.23
ACGCTC	1.61 ± 0.3	1.74 ± 0.24	2.13 ± 0.26
ATCAAC	3.56 ± 1.5	4.05 ± 0.78	5.86 ± 1.6

Sequence	relative kcat/Km [1]	relative kcat/Km [2]	relative kcat/Km [3]
GGCTAG			2.56 ± 0.45
GGGACG			0.813 ± 0.32
AGCTAG	2.24 ± 1.8	1.65 ± 0.16	3.35 ± 1.1
TTTACG		0.527 ± 0.33	1.78 ± 0.3
CCCAGG	1.3 ± 0.88	0.359 ± 0.013	1.37 ± 0.24
ACAAGG	0.983 ± 0.75	0.489 ± 0.23	0.806 ± 0.46
CCTTGA	3.04 ± 1.9	3.16 ± 0.61	4.31 ± 0.98
GTAGTC	1.75 ± 0.7	1.42 ± 0.58	1.41 ± 0.024
AGTTAG	2.06 ± 1.1	2.34 ± 0.29	4.77 ± 1.3
CAATAT	3.27 ± 0.33	4.46 ± 0.96	6.37 ± 3
GGCGCC	2.72 ± 2.1	2.21 ± 0.42	3.06 ± 0.78
CAGTCT	1.97 ± 0.68	2.58 ± 1	3.68 ± 1.1
TGCGCA	2 ± 0.91	1.69 ± 0.53	2.46 ± 0.77
ACATCA	1.21 ± 0.009	1.81 ± 0.19	2.5 ± 1.6
AGAATG			1.37 ± 0.32
AGCCGA	2.28 ± 0.18	2.48 ± 0.71	4.79 ± 2.1
TGCCAG	1.09 ± 0.63	0.569 ± 0.3	2.44 ± 0.81
CTTACA	1.45 ± 0.65	1.72 ± 0.22	2.66 ± 0.61
GAGAAG		0.734 ± 0.39	1.62 ± 0.15
CATAAG	2.17 ± 1.8	1.55 ± 0.2	2.63 ± 0.4
GCTTGA		1.64 ± 0.093	2.72 ± 0.46
GTGCAA	1.89 ± 1.4	1.25 ± 0.53	1.32 ± 0.22
AGGTAC	1.06 ± 0.53	0.817 ± 0.12	1.42 ± 0.88

Sequence	relative kcat/Km [1]	relative kcat/Km [2]	relative kcat/Km [3]
TTATTG			1.66 ± 0.42
TCTTCG	0.94 ± 0.5	0.723 ± 0.18	1.66 ± 0.16
CGGACC	0.889 ± 0.39	0.714 ± 0.41	0.577 ± 0.38
TAACTG			0.792 ± 0.16
GTCGTT	1.88 ± 0.21	2.27 ± 0.34	2.84 ± 1.5
GTGTCC	1.51 ± 0.45	0.992 ± 0.16	1.45 ± 0.24
TTACCA	2.14 ± 1.2	1.87 ± 0.28	2.16 ± 1.2
GCTCCG			0.812 ± 0.77
AGCGGA		0.402 ± 0.097	0.963 ± 0.59
AGGTTT			1.18 ± 0.77
TAGGCA	1.68 ± 0.35	1.12 ± 0.27	1.61 ± 0.94
TCAAAG		1.13 ± 0.55	1.88 ± 0.077
CGCAGT	0.604 ± 0.024	1.58 ± 1.3	1.54 ± 1.1
CCCGCT	2.05 ± 0.54	1.73 ± 1.7	2.61 ± 0.18
AAAGGG			1.26 ± 0.72
GCGGGA			1.03 ± 0.89
ATCAAA	3.96 ± 1.9	5.34 ± 0.78	
GTTTTT	2.72 ± 0.87	3.31 ± 0.35	4.66 ± 1.7
CGATAC	3.25 ± 1.4	4.04 ± 1	5.79 ± 2.4
TGGATC	0.64 ± 0.58	1.09 ± 0.031	1.46 ± 1.2
TATCGT			2.28 ± 2
CGACTT	2.19 ± 0.62	1.6 ± 0.27	2.58 ± 0.66
TATAAT	3.05 ± 0.91	3.72 ± 0.38	5.41 ± 2.8

Sequence	relative kcat/Km [1]	relative kcat/Km [2]	relative kcat/Km [3]
AAGGAT	0.301 ± 0.0072		
ACCTGT			1.14 ± 1.1
GCTGCG			0.863 ± 0.14
GCCCTG			0.981 ± 0.65
GAATCG			1.07 ± 0.024
TCGGTA	0.285 ± 0.19		
GCTCGT	0.751 ± 0.11		1.23 ± 1
TATTGG	0.568 ± 0.24		1.46 ± 0.98
TACCTA	2.68 ± 0.57	2.96 ± 0.45	4.3 ± 2
ATAACG			0.883 ± 0.29
CCCCGA	3.63 ± 1.8	4.05 ± 0.29	4.96 ± 1.9
ATTCCC	1.87 ± 0.87	1.93 ± 0.23	2.08 ± 0.99
CAAGAA	2.22 ± 0.59	1.66 ± 0.49	2.38 ± 0.52
TACTCA	4.24 ± 2.1	4.66 ± 0.28	6.33 ± 3
TCGTTC	3.28 ± 0.52	3.48 ± 1.1	5.41 ± 2.3
GTAGCG			0.718 ± 0.3
CATTGT			1.59 ± 0.98
TCCAAG	2.34 ± 1.2	1.77 ± 1.2	4.8 ± 1.6
AAAGAC	1.83 ± 0.76	2.21 ± 0.32	2.74 ± 0.42

Source: the supplement of paper PMC9433436
